From publication PMC4336329 (PLoS ONE, 2015) come the findings set out here.

In all, about 310,000 compounds went through this assay and about 14,000 (4.5%) showed an effect of 50% or more. Effects have a minus sign here. The list shows a part of the results.
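Further: peak tail current of the secondary pulse compared with the same well before compound.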

The target in the experiment is human ether-à-go-go-related gene (hERG) potassium channel (human, UniProt Q12809). Kind of experiment: primary screen, population patch clamp on CHO cells stably expressing hERG.
human ether-à-go-go-related gene (hERG) potassium channel, sequence (Q12809 whole entry, looked up): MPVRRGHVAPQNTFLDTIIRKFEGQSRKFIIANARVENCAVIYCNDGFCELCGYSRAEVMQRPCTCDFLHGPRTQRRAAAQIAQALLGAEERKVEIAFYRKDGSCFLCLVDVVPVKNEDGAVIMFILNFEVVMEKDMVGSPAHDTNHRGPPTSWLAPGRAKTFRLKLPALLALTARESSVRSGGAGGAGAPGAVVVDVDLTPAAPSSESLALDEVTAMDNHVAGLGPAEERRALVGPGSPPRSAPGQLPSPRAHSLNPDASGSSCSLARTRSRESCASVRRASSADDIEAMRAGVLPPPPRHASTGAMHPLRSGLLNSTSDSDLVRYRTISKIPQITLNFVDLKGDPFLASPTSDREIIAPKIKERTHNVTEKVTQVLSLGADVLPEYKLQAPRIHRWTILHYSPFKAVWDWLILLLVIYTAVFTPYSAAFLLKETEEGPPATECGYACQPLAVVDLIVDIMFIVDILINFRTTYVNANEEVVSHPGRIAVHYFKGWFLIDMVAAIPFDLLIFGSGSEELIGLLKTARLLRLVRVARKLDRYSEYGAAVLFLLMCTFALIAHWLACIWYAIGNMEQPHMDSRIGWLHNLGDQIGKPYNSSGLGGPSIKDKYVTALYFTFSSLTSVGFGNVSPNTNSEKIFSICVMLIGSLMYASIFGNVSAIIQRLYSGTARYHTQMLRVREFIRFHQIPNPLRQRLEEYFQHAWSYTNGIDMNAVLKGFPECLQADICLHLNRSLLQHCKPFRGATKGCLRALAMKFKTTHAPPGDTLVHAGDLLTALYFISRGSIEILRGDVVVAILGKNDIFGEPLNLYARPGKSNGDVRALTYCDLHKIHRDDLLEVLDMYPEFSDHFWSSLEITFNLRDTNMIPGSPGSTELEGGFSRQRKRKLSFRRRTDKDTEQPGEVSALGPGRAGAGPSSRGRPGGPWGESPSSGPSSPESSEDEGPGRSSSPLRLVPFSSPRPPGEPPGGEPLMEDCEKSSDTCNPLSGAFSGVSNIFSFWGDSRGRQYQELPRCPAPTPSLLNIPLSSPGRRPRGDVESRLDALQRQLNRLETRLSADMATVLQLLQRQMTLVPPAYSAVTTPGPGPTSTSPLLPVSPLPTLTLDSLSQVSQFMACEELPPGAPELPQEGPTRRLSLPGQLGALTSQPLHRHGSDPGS
For the compound `Cc1ccc(C(=O)N2CCN(c3ncnc4c(-c5ccccc5)nsc34)CC2)cc1`, the “hERG current change (%, negative = inhibition) at 10uM” value was 18.1%.

Consider `CCc1c(C(=O)NC(C)C2CCCO2)csc1C` (stereo not shown), for which the “hERG current change (%, negative = inhibition) at 10uM” value is -2.12%.

For `CCc1nnc(NC(=O)CSc2nnc(CNC(=O)c3cc(OC)c(OC)c(OC)c3)o2)s1`, the “hERG current change (%, negative = inhibition) at 10uM” value stood at 27.5%.

With `Cc1cc2ncn(C(=O)c3ccc(F)cc3)c2cc1C`, the “hERG current change (%, negative = inhibition) at 10uM” value came to 10.7%.

Take `O=C(O)c1ccc(N/N=C/C(Br)=C/c2ccccc2)cc1`: the “hERG current change (%, negative = inhibition) at 10uM” value was found to be 13.7%.

With `CCOc1ccccc1NC(=O)c1ccccc1N(C)S(=O)(=O)c1ccc(C)cc1`, the “hERG current change (%, negative = inhibition) at 10uM” value is -1.09%.

With `O=C(Nc1ccc(F)cc1)C1CCCN(c2cnccn2)C1` (stereo not shown), the “hERG current change (%, negative = inhibition) at 10uM” value is reported as -11.9%.

With `Cc1cc(Oc2ccc(C)c(Cl)c2)nc(SCC(=O)c2ccccc2)n1`, the “hERG current change (%, negative = inhibition) at 10uM” value came out at 10.1%.

As to `COc1ccc2c(c1OC)C(=O)N(c1cccc(/C=C/C(=O)O)c1)C2`, the “hERG current change (%, negative = inhibition) at 10uM” value is 29%.

On to `Cc1ccc(C)c(C(=O)OCC(=O)Nc2ccc(N3CCOCC3)cc2)c1`, for which the “hERG current change (%, negative = inhibition) at 10uM” value was 0.591%.

In the case of `Oc1ccc(N2CCN(CC(O)c3ccccc3)CC2)cc1` (stereo not shown), the “hERG current change (%, negative = inhibition) at 10uM” value was determined as 10.4%.

`O=C(Nc1cccc2cccnc12)c1ccccc1Cl`: the “hERG current change (%, negative = inhibition) at 10uM” value is reported as -14.5%.

Consider `COc1ccc(N2CCN(/C(=N\S(=O)(=O)c3ccc(C)cc3)Nc3nc(C)cc(C)n3)CC2)cc1`, for which the “hERG current change (%, negative = inhibition) at 10uM” value is listed as -15.3%.

Consider `Cc1cc(C)nc(Nc2n[nH]c(-c3ccccc3Br)n2)n1`, for which the “hERG current change (%, negative = inhibition) at 10uM” value is on record as 7.5%.

On to `COc1cc(CCCN2C(=O)C(=O)NC[C@@H]2C(C)O)cc(OC)c1OC` (stereo partly shown), for which the “hERG current change (%, negative = inhibition) at 10uM” value is reported as -5.41%.

With `CCOC(=O)/C(C#N)=C\c1ccc(N2CCN(C/C=C/c3ccccc3)CC2)cc1`, the “hERG current change (%, negative = inhibition) at 10uM” value is -12.1%.

As to `CCC1=NN2C(=N)/C(=C\c3ccc(OCCOc4ccccc4OC)cc3)C(=O)N=C2S1`, the “hERG current change (%, negative = inhibition) at 10uM” value turned out to be 12.6%.

Regarding `CCC(=O)c1ccc(OCC(=O)N2CCN(c3ccccn3)CC2)cc1`, the “hERG current change (%, negative = inhibition) at 10uM” value is given as -31.5%.

For `COc1ccc(C(C(=O)NC2CCCC2)N(C(=O)Cc2cccs2)C2CC2)cc1OC` (stereo not shown), the “hERG current change (%, negative = inhibition) at 10uM” value was -0.77%.

For `CCc1cc(=O)[nH]c(SCC(=O)N2CCOCC2)n1`, the “hERG current change (%, negative = inhibition) at 10uM” value was -8.36%.

With `CC1CCC2(CC1)NC(=O)N(CC(=O)N1CCN(c3ccccc3)CC1)C2=O` (stereo not shown), the “hERG current change (%, negative = inhibition) at 10uM” value came out at 7.72%.

Turning to `C=CCc1cc(/C=N/NC(=O)CSc2nnc(CCCc3ccc(OC)cc3)o2)cc(OC)c1O`, the “hERG current change (%, negative = inhibition) at 10uM” value is 16.7%.

`CCc1nc(N)c(C#N)c(-c2cccn2C)c1C`: the “hERG current change (%, negative = inhibition) at 10uM” value was 13.3%.

As to `O=C(Nc1nccs1)C(NS(=O)(=O)c1ccc(Br)s1)c1ccccc1` (stereo not shown), the “hERG current change (%, negative = inhibition) at 10uM” value was -3.89%.

As to `CCCCSc1nnc([C@H](C)NC(=O)OC(C)(C)C)o1`, the “hERG current change (%, negative = inhibition) at 10uM” value is recorded as 12.5%.

As to `COC(=O)C(C)n1nc(C)n(-c2ccc(C)cc2)c1=O` (stereo not shown), the “hERG current change (%, negative = inhibition) at 10uM” value was -5.27%.

As for `O=S(=O)(c1ccccc1)N1N=C(c2ccccc2)CC1c1ccccc1F` (stereo not shown), the “hERG current change (%, negative = inhibition) at 10uM” value worked out at 6.73%.

For the compound `CCCOc1c(OC)cccc1C1CC(=O)Nc2cc3c(cc21)OCCO3` (stereo not shown), the “hERG current change (%, negative = inhibition) at 10uM” value is on record as -1.64%.

For `CCN1C[C@]2(COC)CC[C@H](O)[C@]34C1[C@](O)([C@@H](OC)[C@H]23)[C@@]1(O)C[C@H](OC)[C@H]2C[C@@H]4[C@@H]1[C@H]2OC`, the “hERG current change (%, negative = inhibition) at 10uM” value is reported as 14.1%.

Turning to `COc1ccc(CC(=O)N2CCCC2)c(OC)c1`, the “hERG current change (%, negative = inhibition) at 10uM” value is recorded as 11.8%.

Consider `O=C(NCc1ccccc1)c1cc[n+](Cc2ccccc2)cc1.[Cl-]`, for which the “hERG current change (%, negative = inhibition) at 10uM” value was determined as 13.6%.

With `CC(C)c1nnc(NC(=O)CCC(=O)N2CCN(Cc3ccc(F)cc3)CC2)s1`, the “hERG current change (%, negative = inhibition) at 10uM” value was -0.0872%.

With `O=C(C1=C(O)C(=O)N(CCCn2ccnc2)C1c1cccc(Br)c1)c1ccco1` (stereo not shown), the “hERG current change (%, negative = inhibition) at 10uM” value is on record as 26.2%.

Turning to `COc1ccc(NC(=O)C(C)N2c3cccc4cccc(c34)S2(=O)=O)c(OC)c1` (stereo not shown), the “hERG current change (%, negative = inhibition) at 10uM” value worked out at 2.69%.

With `COc1ccc(NC(=O)COC(=O)/C=C/c2ccccc2[N+](=O)[O-])cc1`, the “hERG current change (%, negative = inhibition) at 10uM” value is listed as -16.3%.

In the case of `O=S(=O)(Cc1ccccc1Cl)c1ncn[nH]1`, the “hERG current change (%, negative = inhibition) at 10uM” value is given as 14.2%.

With `Cc1ccc(CNC(=O)CSc2nc(C)cc(C)c2C#N)cc1`, the “hERG current change (%, negative = inhibition) at 10uM” value worked out at 9.59%.

Regarding `Cc1ccc(S(=O)(=O)N2CCC(C(=O)NC3CC3)CC2)cc1`, the “hERG current change (%, negative = inhibition) at 10uM” value is -5.59%.

Consider `COC(=O)c1sccc1NC(=S)Nc1cc(C)ccc1OC`, for which the “hERG current change (%, negative = inhibition) at 10uM” value was determined as 14.9%.

Consider `N#CC1=C(N)N=C(SCc2cccc3ccccc23)C(C(N)=O)C12CCCCC2` (stereo not shown), for which the “hERG current change (%, negative = inhibition) at 10uM” value came out at 3.79%.

As to `CNC(=O)COC(=O)c1cc(-c2ccccc2)nn1-c1ccccc1`, the “hERG current change (%, negative = inhibition) at 10uM” value is -5.35%.

As for `CCC(CC)c1nnc(NC(=O)COc2ccc3c(c2)OCO3)s1`, the “hERG current change (%, negative = inhibition) at 10uM” value worked out at 13.1%.

`COc1ccc(OC)c(/C=N/NC(=O)Cn2ccnc2C)c1`: the “hERG current change (%, negative = inhibition) at 10uM” value is on record as 14.8%.

Consider `CC(C)C12CCC(C(=O)O)C(C1)C(=O)O2` (stereo not shown), for which the “hERG current change (%, negative = inhibition) at 10uM” value stood at 13.9%.

Regarding `CC(=O)C1=C(C)NC(SCC(=O)c2ccccc2)=C(C#N)C1CC(C)C` (stereo not shown), the “hERG current change (%, negative = inhibition) at 10uM” value is listed as -7.38%.

In the case of `Cc1ccc(Nc2cc(C)nc(N3CCOCC3)n2)c(C)c1`, the “hERG current change (%, negative = inhibition) at 10uM” value is 3.67%.

With `COc1cc(/C=N/NC(=O)c2sc3nc(C)cc(C)c3c2N)ccc1O`, the “hERG current change (%, negative = inhibition) at 10uM” value is given as -6.25%.

As to `CC(=O)c1c(C)[nH]c(C(=O)OCC(=O)N2CCc3ccccc3C2)c1C`, the “hERG current change (%, negative = inhibition) at 10uM” value is given as -13.9%.

For the compound `C=C(C)CNC(=S)/N=c1\scc(C)n1CC`, the “hERG current change (%, negative = inhibition) at 10uM” value is recorded as -0.245%.

Consider `CCOC(=O)c1ccc(S(=O)(=O)NNC(=O)c2cccc(N(C)C)c2)cc1`, for which the “hERG current change (%, negative = inhibition) at 10uM” value is on record as 22.4%.

With `O=C(Cn1c[n+](CC(=O)c2ccc([N+](=O)[O-])cc2)cn1)c1ccc([N+](=O)[O-])cc1.[Br-]`, the “hERG current change (%, negative = inhibition) at 10uM” value is reported as 21.3%.

As for `O=C(COC(=O)c1cccs1)NCc1ccccc1`, the “hERG current change (%, negative = inhibition) at 10uM” value was 14.6%.

On to `O=C(COC(=O)c1ccccn1)Nc1ccc2c(c1)OCO2`, for which the “hERG current change (%, negative = inhibition) at 10uM” value was -65.5%.

`CC(NC(=O)NC12CC3CC(CC(C3)C1)C2)c1ccc2c(c1)OCO2` (stereo not shown): the “hERG current change (%, negative = inhibition) at 10uM” value amounted to 0.0168%.

Turning to `Cc1cc(NC(=O)C(C)SCC(=O)OC(C)C(=O)Nc2cccc(C#N)c2)no1` (stereo not shown), the “hERG current change (%, negative = inhibition) at 10uM” value is recorded as -9.69%.
